Results from the supplement of paper PMC11417369.
± gives the standard deviation of the averaged measurements. This is one part of the list.

What follows are sequences tested on PfAP2-LT AP2 domain (GST-tagged) (assay: gcPBM binding intensity (ln(normalized median fluorescence intensity)); higher = stronger DNA binding).
Procedure, shortened: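 Binding intensity is the highest Masliner-normalised natural-log median intensity over replicate spots in either probe orientation. To obtain it, GST-tagged P. falciparum DNA-binding domains made in E. coli were incubated for 1 h on an Agilent 4 × 180k array of primer-extended double-stranded 36-bp intergenic genomic probes plus negative controls. Detection used Alexa488 anti-GST antibody with scanning at 488 nm.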
In the case of “ATCATATGTATGCATACACACAAAAAATTATATATA [CACACA_site398]”, the “gcPBM binding intensity (ln)” value is reported as 9.14 ± 0.34.
In the case of “TATAATGATATAACAACACACATGTATGTATTATTA [CACACA_site230]”, the “gcPBM binding intensity (ln)” value is reported as 9.04 ± 0.35.
In the case of “TTTTTAATATATAAAGATAATAATAAATAAAATTCA [CACACA_negctrl_site657]”, the “gcPBM binding intensity (ln)” value is reported as 8.14 ± 0.46.
With “TATAGATACCTATACACACACACACGGACATATATA [CACACA_site7585]” the “gcPBM binding intensity (ln)” value was 10 ± 0.25.
In the case of “AAAGAAATGAAATATACACACATACCTATATACATA [CACACA_site7817]”, the “gcPBM binding intensity (ln)” value is reported as 9.24 ± 0.41.
With “ATATAAAACAACGGGTGTACAAAAAAATAAATAATA [XGTACX_site4094]” the “gcPBM binding intensity (ln)” value was 8.99 ± 0.61.
In the case of “TTTTTCTTCTGCATTATGCACACTATAATTCGTTAA [CACACA_site2837]”, the “gcPBM binding intensity (ln)” value is reported as 9.24 ± 0.38.
“CTGAATGTATATATTTGTACATATATATATATATAT [XGTACX_site5557]” was tested, and the “gcPBM binding intensity (ln)” value was 9.3 ± 0.13.
With “AAAAAAAAAAAACACGCATGTACATAAAAATAATCA [TGCATGCA_site142]” the “gcPBM binding intensity (ln)” value was 9.14 ± 0.42.
With “GGGTATAATAAAAGCACACACAAAGATATAAATATA [CACACA_site3308]” the “gcPBM binding intensity (ln)” value was 9.4 ± 0.49.
With “TTTTTTTTTTTTAATTAACACACATAAATATATATA [CACACA_site9077]” the “gcPBM binding intensity (ln)” value was 8.6 ± 0.35.
“TATAATGATGATGATAGTACGTATGAGTTCAAAAAA [XGTACX_site3656]” was tested, and the “gcPBM binding intensity (ln)” value was 8.85 ± 0.42.
For “TTAAAATCTTGAAAAGTGCATTATCATTTTGTAACG [GTGCAC_site9447]”, the “gcPBM binding intensity (ln)” value was 8.49 ± 0.42.
For “TATATATTTATATATGCATGTACATTTTTATTTATT [TGCATGCA_site1048]”, the “gcPBM binding intensity (ln)” value was 8.96 ± 0.52.
In the case of “CTTTCATATGTTTTAACACACACGCATATATTATAG [CACACA_site7033]”, the “gcPBM binding intensity (ln)” value is reported as 9.26 ± 0.41.
In the case of “AAAAAAAAAAAAAATACACACACATATATATATATA [CACACA_site8698]”, the “gcPBM binding intensity (ln)” value is reported as 9.865 ± 0.05.
For “AAGAATGTTAACGTTGCACACAAAAAAAAAGTATAC [CACACA_site8763]”, the “gcPBM binding intensity (ln)” value was 9.22 ± 0.45.
In the case of “ATATAAGTTATTTTATACAAAAAAAAAAAAAAAAAT [CACACA_negctrl_site1190]”, the “gcPBM binding intensity (ln)” value is reported as 8.66 ± 0.45.
With “TATTTATGCACGCGTGCACACACATATGAAAAAAGG [CACACA_site9090]” the “gcPBM binding intensity (ln)” value was 9.28 ± 0.3.
For “AATTGCTAATGGTACGAACACACATATAAAGATGCA [CACACA_site8634]”, the “gcPBM binding intensity (ln)” value was 9.05 ± 0.47.
“AGTATACACAGACACACACACACATATATATATATA [CACACA_site8510]” was tested, and the “gcPBM binding intensity (ln)” value was 10.3 ± 0.42.
In the case of “TTTTTATGGACTATGGTGCATTATATATAAATGAAA [GTGCAC_site9557]”, the “gcPBM binding intensity (ln)” value is reported as 8.35 ± 0.34.
For “TAATATTATATAAATTGTACTATTTTTTCCTTATTC [XGTACX_site5314]”, the “gcPBM binding intensity (ln)” value was 8.64 ± 0.51.
With “GTAAACAATTATGAACGTACATAAAATAAATGAACA [XGTACX_site7159]” the “gcPBM binding intensity (ln)” value was 9.12 ± 0.47.
“TGTCTTTTTAAGTTTTGTACATAAATATATTTCAAA [XGTACX_site427]” was tested, and the “gcPBM binding intensity (ln)” value was 8.62 ± 0.38.
“TTTTCATTTTTCTTTACACACATATATATATATATA [CACACA_site2236]” was tested, and the “gcPBM binding intensity (ln)” value was 9.28 ± 0.28.
With “AAAAAAAAAAAAAAAAAAAAACACCCAAAAAAATAT [XGTACX_negctrl_site210]” the “gcPBM binding intensity (ln)” value was 8.86 ± 0.44.
With “GAAAGACAAATTGTGACACACACAAAAAAAAAAAAA [CACACA_site9241]” the “gcPBM binding intensity (ln)” value was 9.26 ± 0.54.
“TATATATATATTTTTTGTACATATTATATAATATAC [XGTACX_site5187]” was tested, and the “gcPBM binding intensity (ln)” value was 8.82 ± 0.38.
For “TTTTCGATATGCTTTTTTTTTCTACTGTCTTTTTAA [TGCATGCA_negctrl_site54]”, the “gcPBM binding intensity (ln)” value was 8.65 ± 0.61.
For “ATATCAAATTCTGAAACACACAAAATTACACCTCTA [CACACA_site169]”, the “gcPBM binding intensity (ln)” value was 8.91 ± 0.26.
“TAAAAATAGGAGTGTGTGCACATAAATTATATACTA [GTGCAC_site9405]” was tested, and the “gcPBM binding intensity (ln)” value was 9.34 ± 0.46.
For “CAAAAATATTATTATAGTACATAAATAATATATTTT [XGTACX_site6902]”, the “gcPBM binding intensity (ln)” value was 8.52 ± 0.57.
In the case of “CACATACATAAATACACACACAAAATAATAAAATAA [CACACA_site5304]”, the “gcPBM binding intensity (ln)” value is reported as 9.52 ± 0.46.
In the case of “TTACTTAATAGACACACACACAAAAAAAAAAAAAAA [CACACA_site6572]”, the “gcPBM binding intensity (ln)” value is reported as 9.4 ± 0.51.
In the case of “AAACAATAAAAGATTACACACATATATAGCATATAT [CACACA_site1698]”, the “gcPBM binding intensity (ln)” value is reported as 9.16 ± 0.35.
In the case of “TATACATAATATATATGTACATATATTCTTTATTTT [XGTACX_site4565]”, the “gcPBM binding intensity (ln)” value is reported as 8.78 ± 0.42.
For “ATATTTTTTACTATTACACACAAGGGATTATTATTT [CACACA_site3915]”, the “gcPBM binding intensity (ln)” value was 9.13 ± 0.38.
With “TCAAATAATTTGTTGACACACACACCCACATACATA [CACACA_site8717]” the “gcPBM binding intensity (ln)” value was 9.72 ± 0.25.
With “ACCTTATAAAAAAAAAGTACATATATAAATAATAAA [XGTACX_site4338]” the “gcPBM binding intensity (ln)” value was 8.57 ± 0.47.
With “CTATAATATTAGTGCACACACAAAAATGTACTAAAC [CACACA_site6442]” the “gcPBM binding intensity (ln)” value was 9.38 ± 0.33.
“AAGAAAAAAACAAAAAAAAAAAAAAAAATTCTTATT [TGCATGCA_negctrl_site504]” was tested, and the “gcPBM binding intensity (ln)” value was 8.24 ± 0.66.
In the case of “ACTAATGTAAAAGTTTGTACATATATTGAGAATTAT [XGTACX_site7439]”, the “gcPBM binding intensity (ln)” value is reported as 8.71 ± 0.52.
“ATTTTTTTCCACTAGTGTACAAATTTTACATTGTGT [XGTACX_site5023]” was tested, and the “gcPBM binding intensity (ln)” value was 9.22 ± 0.54.
In the case of “ATAAAATAAAAGGAATGTACTTTTTTTATTGTAATT [XGTACX_site4372]”, the “gcPBM binding intensity (ln)” value is reported as 8.44 ± 0.42.
In the case of “AACAAATACGGACACACACACACACTAGAAAAAAAA [CACACA_site4442]”, the “gcPBM binding intensity (ln)” value is reported as 9.82 ± 0.29.
With “AACAAATTGAAACAATAATTGGAAAAAAAAAAAAAA [CACACA_negctrl_site1145]” the “gcPBM binding intensity (ln)” value was 8.54 ± 0.44.
With “TAAAAAAAAACAGAAACACACATTATTCATATAGAT [CACACA_site7052]” the “gcPBM binding intensity (ln)” value was 8.89 ± 0.43.
With “GTTATAAATTTTTTTTTTTTTTTTTTTTTTTTTTTT [CACACA_negctrl_site848]” the “gcPBM binding intensity (ln)” value was 8.71 ± 0.35.
“AAAAGCACCGTTCGTTGTACACTGAAACACTTTTGT [XGTACX_site199]” was tested, and the “gcPBM binding intensity (ln)” value was 9.05 ± 0.46.
For “AGTTTCTATTTAGTGTGTACTTAAGAAAAATATCTC [XGTACX_site82]”, the “gcPBM binding intensity (ln)” value was 8.69 ± 0.35.
“AAATGTATATATGTATGTACATATATATATATATAT [XGTACX_site5778]” was tested, and the “gcPBM binding intensity (ln)” value was 9.76 ± 0.29.
In the case of “ATAAACTGAGTGGTTACACACAAAACCAATAATTTT [CACACA_site3478]”, the “gcPBM binding intensity (ln)” value is reported as 9.14 ± 0.5.
In the case of “ATATATATATATATATGTACTCATATTTTATTATTT [XGTACX_site898]”, the “gcPBM binding intensity (ln)” value is reported as 9.665 ± 0.078.
For “TATTGATAATTTTATATATACATACATAAATAAATA [CACACA_negctrl_site1687]”, the “gcPBM binding intensity (ln)” value was 8.29 ± 0.4.
In the case of “TTTTCAATTTTTTATGAACACACAAAAAAAAAAAAA [CACACA_site8808]”, the “gcPBM binding intensity (ln)” value is reported as 8.2 ± 0.45.
